# About 17,000 (4.4%) of roughly 390,000 compounds were called active. Inconclusive means that the source gave no clear call. Such entries were picked first, then a sample of the others. Calls follow the shape of the dose curve; as a rule, active = well fitted inhibition curve with a large enough effect; inconclusive = small, poorly fitted or top-dose-only effect; inactive = no such curve, though single readings can be large or run the other way. Potencies beside an inconclusive call are fits to weak or partial responses and may not hold up.
# Target: Lysine-specific demethylase 4A (Homo sapiens) (UniProt O75164)
# Chain of UniProt O75164 (O75164 whole entry, looked up, the tested form may be a part): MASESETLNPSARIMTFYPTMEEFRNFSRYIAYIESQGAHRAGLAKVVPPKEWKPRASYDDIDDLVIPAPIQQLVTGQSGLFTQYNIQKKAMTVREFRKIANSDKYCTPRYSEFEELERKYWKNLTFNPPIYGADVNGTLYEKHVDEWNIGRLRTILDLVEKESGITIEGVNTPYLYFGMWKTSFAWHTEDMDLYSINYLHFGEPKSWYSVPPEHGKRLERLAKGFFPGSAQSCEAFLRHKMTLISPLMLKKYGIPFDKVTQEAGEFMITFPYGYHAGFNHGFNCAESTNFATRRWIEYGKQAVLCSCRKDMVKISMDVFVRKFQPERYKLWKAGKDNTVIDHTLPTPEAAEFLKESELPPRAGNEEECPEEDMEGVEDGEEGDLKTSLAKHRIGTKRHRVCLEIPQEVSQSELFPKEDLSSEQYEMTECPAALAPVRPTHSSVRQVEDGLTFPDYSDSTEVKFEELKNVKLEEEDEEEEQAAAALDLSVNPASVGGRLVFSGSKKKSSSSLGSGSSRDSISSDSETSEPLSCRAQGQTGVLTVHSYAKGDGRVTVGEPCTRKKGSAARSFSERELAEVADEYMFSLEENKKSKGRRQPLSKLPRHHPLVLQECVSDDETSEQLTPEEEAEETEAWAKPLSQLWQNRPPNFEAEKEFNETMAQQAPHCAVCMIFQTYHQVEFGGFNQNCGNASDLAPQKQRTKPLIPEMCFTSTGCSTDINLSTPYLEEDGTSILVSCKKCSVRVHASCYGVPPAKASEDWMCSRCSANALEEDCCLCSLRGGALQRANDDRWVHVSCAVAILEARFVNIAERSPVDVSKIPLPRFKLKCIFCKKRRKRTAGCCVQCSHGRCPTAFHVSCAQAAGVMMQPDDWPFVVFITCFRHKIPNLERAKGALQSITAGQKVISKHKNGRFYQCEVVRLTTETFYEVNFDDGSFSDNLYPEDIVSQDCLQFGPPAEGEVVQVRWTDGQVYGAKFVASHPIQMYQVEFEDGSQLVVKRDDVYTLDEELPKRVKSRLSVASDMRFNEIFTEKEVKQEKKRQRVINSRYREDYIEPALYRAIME
# Experiment: qHTS Assay for Inhibitors of JMJD2A-Tudor Domain; also: nearly all actives have a fitted effect of over 50% in size
# Details: AlphaScreen JMJD2A-Tudor / H3K4me3 peptide binding; activity change, negative = inhibition: at 114 µM (top of the series)
# % is scaled to controls: 0 for no effect and ±100 for the full control effect; potency is read from the fitted curve at half-maximal effect; tags tell the direction and shape of the fitted curve.
Compound,Potency,"activity change, negative = inhibition"
C/C=C/CSc1nc2c(c(=O)[nH]c(=O)n2C)n1CCC,inactive,
CC(=O)N1c2ccc(S(=O)(=O)NCCC(=O)NCCc3ccc(C)cc3)cc2CC1C (stereo not drawn),"inconclusive: 25.1 µM [inhibitor, full curve, poor fit]",
CCOC(=O)Cc1c(C)nc(N)[nH]c1=O,inactive,
CNc1nc(-c2ccc3c(c2)CCN3C(=O)c2ccccc2F)cs1,"inconclusive: 39.8 µM [inhibitor, partial curve]",
O=C(NC1CCCCCC1)c1cc(S(=O)(=O)N2CCCCC2)ccc1N1CCOCC1,inactive,
CCOC(=O)c1cc2c(=O)n3ccccc3nc2n(CC2CCCO2)c1=NC(=O)c1cccc(C(F)(F)F)c1 (stereo not drawn),inactive,
COc1ccc(OC)c(CCNC(=O)CCc2nnc3ccc(N4CCOCC4)nn23)c1,"inconclusive: 25.1 µM [inhibitor, full curve, poor fit]",
Cc1cc(C=O)c(C)n1-c1ccc(N2CCCC2)c([N+](=O)[O-])c1,"inconclusive: 56.2 µM [inhibitor, partial curve]",
C/C(=N/NC(N)=S)c1ccccc1[N+](=O)[O-],inactive,
COc1cccc(/C=N/NC(=S)Nc2cccc(S(=O)(=O)N(C)C)c2)c1,"inconclusive: 28.2 µM [inhibitor, full curve, poor fit]",
COc1ccc(C2c3[nH]c4ccccc4c3C[C@H]3C(=O)N(C4CCN(Cc5ccccc5)CC4)CC(=O)N23)c(OC)c1 (stereo partly drawn),active: 22.4 µM,
O=C(Cn1c(=O)n(-c2cccc(C(F)(F)F)c2)c(=O)c2sccc21)NCC1CCCO1 (stereo not drawn),active: 39.8 µM,
COc1cc(/C=C(\C#N)C(=O)c2c(C)[nH]c3ccccc23)cc(OC)c1OC,active: 28.2 µM,
CCOC(=O)c1c(NC(=O)c2noc3c2CC(C(C)(C)C)CC3)sc2c1CCCC2 (stereo not drawn),active: 79.4 µM,
CCOCC(=O)N1CCC(Cc2ccccc2)CC1,,inactive: -9.02% [at 11.4 µM]
COc1ccccc1N1CCN(CCCCN2C(=O)C3CCCCN3C2=O)CC1 (stereo not drawn),"inconclusive: 22.4 µM [inhibitor, single point]",
COC(=O)C1CN(C(=O)C(C)Oc2ccc(C)c(C)c2)c2ccccc2O1 (stereo not drawn),inactive,
O=C(/C=C/c1cn(CC(O)CN2CCCCCC2)c2ccccc12)c1ccccc1 (stereo not drawn),"inconclusive: 39.8 µM [inhibitor, partial curve]",
COc1cccc(CN2CCCC(C(=O)c3ccc4c(c3)OCO4)C2)c1OC (stereo not drawn),inactive,
CCOC(=O)c1ccccc1NC(=O)CN(c1ccccc1OC)S(=O)(=O)c1ccc(C)cc1,"inconclusive: 89.1 µM [inhibitor, single point]",
O=C1CC(c2ccc(Cl)cc2)n2nc(N3C(=O)c4ccccc4C3=O)nc2N1 (stereo not drawn),"inconclusive: 20 µM [inhibitor, partial curve]",
Fc1ccc(NC(=S)NN=C2CCCCCC2)cc1,active: 56.2 µM,
CCCCCn1c(N2CCC(Cc3ccccc3)CC2)nc2c1c(=O)[nH]c(=O)n2C,"inconclusive: 25.1 µM [inhibitor, full curve]",
CS(=O)(=O)N(CC(=O)N1CCN(c2ccccc2)CC1)c1cc(C(F)(F)F)ccc1Cl,inactive,
COc1ccccc1N1C(=O)CC(Nc2ccc(N3CCOCC3)cc2)C1=O (stereo not drawn),"inconclusive: 56.2 µM [inhibitor, partial curve, poor fit]",

Compound,Potency,"activity change, negative = inhibition"
CCC(C)n1ncn(-c2ccc(N3CCN(c4ccc(O)cc4)CC3)cc2)c1=O (stereo not drawn),active: 89.1 µM,
Cc1nnc(N/N=C/c2c(Cl)cccc2Cl)n1N,inactive,
CCOc1ccccc1NC1=C(OC)C(=O)C(Nc2ccccc2OCC)=C(OC)C1=O,active: 7.08 µM,
CSc1ccc(CNC(=O)CCn2ccc3cc(S(=O)(=O)N4CCCC4)ccc32)cc1,"inconclusive: 15.8 µM [inhibitor, full curve, poor fit]",
O=C(NCCc1csc(-c2cccnc2)n1)c1cccc(C(F)(F)F)c1,inactive,
CC(C)n1cnc2cc(NCc3ccco3)ccc21,"inconclusive: 39.8 µM [inhibitor, full curve]",
CCc1nnc2c3ccccc3nc(N3CCN(c4ccc(C)cc4C)CC3)n12,inactive,
CS(=O)(=O)N(CC(=O)N1CCOCC1)c1cccc(F)c1,inactive,
CCOc1ccc(CCNS(=O)(=O)c2ccc(-c3ccc(=O)[nH]n3)o2)cc1OCC,inactive,
O=C(NC1CCCc2ccccc21)c1ccccc1Cl (stereo not drawn),inactive,
COc1ccccc1-c1nc(C#N)c(N2CC(C)CC(C)C2)o1 (stereo not drawn),inactive,
CCCc1c(O)nc(SCC(=O)O)[nH]c1=O,"inconclusive: 17.8 µM [inhibitor, full curve, poor fit]",
CCOC(=O)c1cc(-c2ccccc2)n(CCC(=O)N2CCN(c3ccc(OC)cc3)CC2)c1C,"inconclusive: 28.2 µM [inhibitor, single point]",
COc1ccc(C)cc1NC(=O)CN1CCN(c2ccccn2)CC1,"inconclusive: 31.6 µM [inhibitor, partial curve]",
Cc1cccc(NC(=O)CN2C(=O)CCSc3ccc(S(=O)(=O)N4CCOCC4)cc32)c1C,active: 50.1 µM,
COc1ccc(S(=O)(=O)c2c(O)c3ccc(C(=O)Nc4ccccc4Cl)cc3[nH]c2=O)cc1,"inconclusive: 31.6 µM [inhibitor, full curve, poor fit]",
CN(C)CC(O)COC(c1ccccc1)c1ccccc1 (stereo not drawn),inactive,
Cc1ccc(NC(=O)CSCc2cc(=O)n3nc(C4CC4)sc3n2)cc1,active: 31.6 µM,
CCCn1c(C(C)Nc2nc(-c3cc(Cl)c(N)c(Cl)c3)cs2)nc2cc(Cl)c(N3CCCCC3)cc21 (stereo not drawn),"inconclusive: 22.4 µM [inhibitor, full curve]",
CC(O)/C=C/c1cccc[n+]1C (stereo not drawn),active: 39.8 µM,
CC(Sc1nnc(-c2ccncc2)n1C)C(=O)Nc1ccc(N2CCOCC2)cc1 (stereo not drawn),inactive,
O=C1CCCC(O)=C1N=Nc1ccc2c(c1)OCO2,"inconclusive: 56.2 µM [inhibitor, partial curve]",
COC(=O)c1scc(S(C)(=O)=O)c1-n1cccc1,"inconclusive: 79.4 µM [inhibitor, single point]",
Cc1ccc(NS(=O)(=O)c2ccc(OCC(=O)Nc3cccc([N+](=O)[O-])c3)c(C)c2)cc1,"inconclusive: 44.7 µM [inhibitor, partial curve]",
CC(C)Oc1ccc(C(=O)/C(=C\c2cccs2)c2nc3ccccc3o2)cc1,"inconclusive: 11.2 µM [inhibitor, full curve, poor fit]",

Compound,Potency,"activity change, negative = inhibition"
CCCCn1c(-c2ccc(S(=O)(=O)N3CCOCC3)cc2)csc1=Nc1ccccc1,"inconclusive: 28.2 µM [inhibitor, full curve]",
CCN(c1cccc(C)c1)S(=O)(=O)c1nnc(NC(=O)c2cccs2)s1,"inconclusive: 11.2 µM [inhibitor, full curve]",
COc1cccc(CN(CC(=O)NCc2ccco2)C(=O)CNS(=O)(=O)c2ccccc2)c1,inactive,
COc1ccc(N2C(=O)CC(Sc3nnc(-c4ccccc4F)n3C)C2=O)cc1 (stereo not drawn),inactive,
Cc1cccc(Cn2c(CN3CCC(C(=O)NCCc4ccccc4)CC3)cc3ccccc32)c1,inactive,
CCOc1cc(N2CCOCC2)c(OCC)cc1NCC(=O)N1CCN(Cc2ccccc2)CC1,active: 0.794 µM,
COc1ccc(C2c3c(-c4ccccc4O)n[nH]c3C(=O)N2Cc2ccco2)cc1 (stereo not drawn),"inconclusive: 44.7 µM [inhibitor, partial curve]",
NC(=O)c1ccc(NC(=O)CCC(=O)c2cccs2)cc1,"inconclusive: 39.8 µM [inhibitor, partial curve]",
Cc1ccc(Cl)cc1NC(=O)Cn1c(=O)c(CNc2ccccc2)cc2cc3c(cc21)OCCO3,inactive,
COc1cccc(/C=C2/Sc3ccc(C(=O)NCCN4CCCC4)cc3NC2=O)c1,inactive,
CC(C)C[C@@H](CNCC(=O)[C@H](CC(=O)O)NC(=O)c1[nH]cnc1C(=O)N[C@H](CN)CC(C)C)NC(=O)c1nc[nH]c1C(=O)N[C@@H](C)C(=O)O,"inconclusive: 70.8 µM [inhibitor, partial curve]",
Nc1nc(SCc2ccccc2[N+](=O)[O-])c2ncn(Cc3ccccc3)c2n1,"inconclusive: 31.6 µM [inhibitor, full curve]",
CN1CCN(c2ncc3c(n2)CCN(Cc2cc(Br)cs2)C3)CC1,active: 56.2 µM,
O=C(OCC#CCSc1nnc(-c2cccc3ccccc23)o1)c1cc2ccccc2s1,inactive,
O=C1NC(=S)CN1c1ccccc1,active: 12.6 µM,
Cc1ccc2[nH]c(C(=O)Nc3ccc(F)cc3)cc2c1,inactive,
CC(C)(C)OC(=O)C(C1NC(C(=O)O)C(C)(C)S1)N1C(=O)c2ccccc2C1=O (stereo not drawn),"inconclusive: 35.5 µM [inhibitor, single point]",
FC(F)(F)c1nnc2ccc(NCn3nnc4ccccc43)nn12,"inconclusive: 79.4 µM [inhibitor, single point]",
COc1ccc(/C=N/NC(=O)c2ccc(C)cc2)cc1CN1CCN(c2ccc(F)cc2)CC1,"inconclusive: 44.7 µM [inhibitor, partial curve]",
C[C@]1(CC/C(=C/CO)CO)[C@H](CO)CC[C@@]23COC(=O)C2=CCC[C@@H]31,inactive,
O=C1c2ccccc2C(=O)N1CCc1c[nH]c2ccccc12,"inconclusive: 63.1 µM [inhibitor, partial curve]",
COc1cccc(C(=O)NNC(=O)Cc2csc(N)n2)c1,inactive,
COc1ccc(-n2cc(-c3ccccc3)c3c(NC4CCCCC4)ncnc32)cc1,"inconclusive: 44.7 µM [inhibitor, partial curve]",

# — PubChem BioAssay AID504339 (National Center for Advancing Translational Sciences (NCATS), 2011)
